Data published in PubChem BioAssay (Tox21).
The inconclusive results got no clear call from the source; some entries with a clear call stand among them for comparison. No potency is given beside an inconclusive call; the fits are too rough. Active and inactive are the calls of the source. Calls come from the whole dose curve; as a rule, active = well fitted cell-killing curve with a large enough effect in the repeat runs; inconclusive = weak or mixed curves, or effect the other way; inactive = flat fitted curve, though single readings scatter.

experiment: qHTS assay to identify small molecule that activate the aryl hydrocarbon receptor (AhR) signaling pathway - cell viability counter screen (AID 743086); details: HepG2-AhR-luc viability, CellTiter-Fluor, 24 h; series mostly up to 70.3 µM; viability change, negative = cytotoxic: at the top concentration; note: nearly all actives have a fitted effect of over 45% in size;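 for viability change, negative = cytotoxic: HepG2 liver cells carrying the AhR DRE luciferase reporter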
Description: U.S. Tox21 Program National Center for Advancing Translational Sciences [NCATS] NIH Chemical Genomics Center [NCGC] U.S. Environmental Protection Agency [EPA] National Institutes of Environmental Health Sciences [NIEHS] National Toxicology Program [NTP] U.S. Food and Drug Administration [FDA] Tox21 Assay overview: The Aryl hydrocarbon Receptor (AhR), a member of the family of basic helix-loop-helix transcription factors, is crucial to adaptive responses to environmental changes. AhR mediates cellular responses to environmental pollutants such as aromatic hydrocarbons through induction of phase I and II enzymes but also interacts with other nuclear receptor signaling pathways A cell based HepG2-AhR-luc assay (HG2L7.5c1 cell line, developed by Dr. Michael S. Denison, University of California at Davis) was used to assess the activation of AhR. HepG2 (human hepatocellular carcinoma) cells were stably transfected with an Ah receptor-responsive firefly luciferase reporter gene plasmid containing 20 dioxin responsive elements and luciferase reporter gene. Increased luciferase activity can be used to identify the compounds that induce AhR activation. The cytotoxicity of the compounds screened against the HepG2-AhR-luc cell line was tested in parallel by measuring the cell viability using CellTiter-Fluor assay in the same wells.
Tox21 Assay Protocol Summary: 4000 cells in 5 uL/well were dispensed into white wall/solid bottom 1536-well plates using a Multidrop Combi (Thermo Fisher Scientific Inc., Waltham, MA) dispenser. After the assay plates were incubated at 37C for 5 h, 23 nL of compound or DMSO vehicle was transferred to the assay plates by a pintool station (Kalypsys, San Diego, CA). The plates were incubated at 37C for 24 hr. For cell viability measurement, 1 ul/well of CellTiter-Fluor reagent (Promega, Madison, WI) was added into the assay plates using a Flying Reagent Dispenser (FRD) (Aurora Discovery, CA),and then the assay plates were incubated at 37C for 30 min. The fluorescence intensity in the plates was measured using a ViewLux plate reader (PerkinElmer, Shelton, CT), followed by the addition of 4 uL of ONE-Glo Luciferase Assay reagent (Promega) using an FRD (Aurora Discovery). After the assay plates were incubated at room temperature for 30 min, luminescence intensity was measured using a ViewLux plate reader (Perkin Elmer).
% is set by controls: 0 for no effect and ±100 for the full control effect; potency is the fitted concentration of half-maximal effect; tags give direction and shape of the fitted curve.

Compound | viability change, negative = cytotoxic | Potency
CCCN1CCC[C@@H]2Cc3[nH]ncc3C[C@H]21 | inactive: 3.4% | –
CN1C2CCC1CC(OC(c1ccccc1)c1ccc(Cl)cc1)C2 (stereo not given) | – | active: 23.7 µM
C#CC(C)(O)CC (stereo not given) | inactive: 4.36% | –
CNC(=O)O/N=C/C(C)(C)SC | – | inactive
Nc1ncc([N+](=O)[O-])s1 | – | inconclusive [falling, partial curve]
CC(C)C[C@H]1C(=O)N2CCC[C@H]2[C@]2(O)O[C@](NC(=O)[C@@H]3C[C@@H]4c5cccc6[nH]cc(c56)C[C@H]4N(C)C3)(C(C)C)C(=O)N12 | – | inconclusive [falling, partial curve]
CCCSc1cc(OC)c(CCN)cc1OC | – | active: 32.5 µM
C[C@]12C=CC(=O)C=C1CC[C@@H]1[C@@H]2CC[C@]2(C)OC(=O)CC[C@@H]12 | inactive: 2.83% | –
CCCCCCC(=O)CCCCCC/C=C/C[C@@H](O)[C@H](O)[C@@](N)(CO)C(=O)O | – | inactive
CC(C)[C@H]1C(=O)N2CCC[C@H]2[C@]2(O)O[C@](NC(=O)[C@@H]3C[C@@H]4c5cccc6[nH]cc(c56)C[C@H]4N(C)C3)(C(C)C)C(=O)N12 | – | inconclusive [falling, single point]
C=C(C)CN(CC)c1c([N+](=O)[O-])cc(C(F)(F)F)cc1[N+](=O)[O-] | inactive: 4.4% | –
Cc1cc(C)cc(C(=O)OC2C[C@H]3CC[C@@H](C2)N3C)c1 (stereo not given in full) | – | inconclusive [falling, partial curve]
CCC(=O)O[C@H]1[C@@H](N2CCCCC2)C[C@H]2[C@@H]3CC[C@H]4C[C@H](OC(C)=O)[C@@H](N5CCCCC5)C[C@]4(C)[C@H]3CC[C@@]21C | – | inconclusive [falling, full curve]
CCc1cc(OC)c(C[C@@H](C)N)cc1OC | – | inconclusive
O=c1[nH]c(Cl)c(Cl)cc1Cl | – | inconclusive [rising, partial curve, poor fit]
C[C@H]1[C@H]2Cc3ccc(O)cc3[C@]1(C)CCN2CCc1ccccc1 | – | inconclusive [falling, full curve]
COc1cc(C[C@@H](C)N)c(OC)cc1Br | – | inconclusive [falling, single point]
COC(COC(N)=O)C1=C(N2CC2)C(=O)C(C)=C(N2CC2)C1=O (stereo not given) | – | inconclusive [falling, single point]
CO[C@H]1[C@@H](O)C[C@H](O[C@H]2[C@@H](O)C[C@H](O[C@H]3[C@@H](O)C[C@H](O[C@H]4CC[C@@]5(C)[C@H](CC[C@@H]6[C@@H]5C[C@@H](O)[C@]5(C)[C@@H](C7=CC(=O)OC7)CC[C@]65O)C4)O[C@@H]3C)O[C@@H]2C)O[C@@H]1C | – | inconclusive [falling, partial curve, poor fit]
Cc1cccc(C#N)c1 | inactive: 8.59% | –

Compound | viability change, negative = cytotoxic | Potency
c1ccc(Nc2ccc(Nc3ccccc3)cc2)cc1 | inactive: -8.15% | –
CCCCCc1cc(O)c2c(c1)OC(C)(C)c1ccc(C)cc1-2 | – | inconclusive
Oc1cc[c]([Hg][Cl])cc1 | – | inconclusive [falling, single point]
CC(C)(C)NCC(O)c1cc(Cl)c(N)c(C(F)(F)F)c1 (stereo not given) | – | inconclusive [falling, partial curve]
O=C1Nc2ccc(Cl)cc2C(c2ccccc2)=NC1O (stereo not given) | – | inconclusive [rising, single point]
CC(O)CN1CCN(CC(=O)[O-])CCN(CC(=O)[O-])CCN(CC(=O)[O-])CC1.[Gd+3] (stereo not given) | – | inconclusive [rising, partial curve, poor fit]
COc1cccc2c1cc([N+](=O)[O-])c1c(C(=O)O)cc3c(c12)OCO3 | – | inconclusive [falling, full curve]
CCCCc1c(C)nc(NCC)nc1OS(=O)(=O)N(C)C | – | inconclusive [falling, partial curve, poor fit]
Cc1ccc(S(=O)(=O)N[C@@H](CCCCN)C(=O)CCl)cc1 | – | inconclusive [falling, single point]
Nc1c(Br)cc([N+](=O)[O-])cc1[N+](=O)[O-] | – | inconclusive [falling, partial curve]
Oc1cccc[c]1[Hg][Cl] | – | active: 16.8 µM
CN(C)CCCCCCN(C)C | inactive: 7.73% [at 95 µM] | –
O=C1C=C2C=C[C@@H]3C[C@@]2(O1)[C@H]1CCCCN31 | – | active: 15 µM
CC(C)CON=O | – | inactive
CCN(CCO)CCn1c(Cc2ccccc2)nc2c1c(=O)n(C)c(=O)n2C | – | inconclusive [falling, single point]
NC(=O)c1cc([N+](=O)[O-])cc([N+](=O)[O-])c1 | inactive: 13.7% | –
COc1ccc(-c2ccccc2)cc1NNC(=O)OC(C)C | – | inconclusive [falling, single point]
C[C@@H](CO)NC(=O)[C@@H]1C=C2c3cccc4[nH]cc(c34)C[C@H]2N(C)C1 | – | inconclusive [rising, partial curve, poor fit]
C[C@]12CC[C@H]3[C@@H](CCC4=C(O)C(=O)CC[C@@H]43)[C@@H]1CC[C@@H]2OC(=O)CCC1CCCC1 | inactive: 10.9% | –
COCc1cnc(C2=NC(C)(C(C)C)C(=O)N2)c(C(=O)O)c1 (stereo not given) | inactive: 10.1% | –
